Experimental data taken from PubChem BioAssay AID1508623 (National Center for Advancing Translational Sciences (NCATS), 2021).
Hit rate of the full screen: of about 48,000 compounds, about 450 (0.94%) were called active. Another 19% or so got no clear call; they are omitted. Calls come from the whole dose curve; as a rule, active = well fitted inhibition curve with a large enough effect; inconclusive = small, poorly fitted or top-dose-only effect; inactive = no such curve, though single readings can be large or run the other way. Some of the results follow.

Assay: Primary qHTS for Identification of Small Molecule Inhibitors of Huntingtin Promoter Activity; note: nearly all actives have a fitted effect of over 50% in size
Conditions: HEK293 HTT promoter firefly luciferase reporter (activity 0% = vehicle and -100% = no light), 24 h; series mostly up to 57.5 µM; activity change, negative = inhibition: at the top concentration
Method in brief: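 Firefly luciferase readout (Dual-Glo, 10 min RT) after 24 h, 37 °C compound exposure (final up to 57.5 uM) of HEK293 reporter cells cultured 24 h beforehand; PTC124 at 50 uM final as control inhibitor; activity scaled vehicle 0%, zero RLU -100%.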

Activity change, negative = inhibition, inactive:
O=C(NCCCO)C(=O)NCC(c1ccc2c(c1)OCO2)N1CCOCC1 (centres undefined) -8.6%
COc1ccc(C2c3c(oc4ccc(C)cc4c3=O)C(=O)N2CCCN2CCOCC2)cc1OC (centres undefined) 1.55%
COc1ccc(NC(=O)C2=CC(c3ccc4c(c3)OCO4)=NS(=O)(=O)N2C)cc1 -29.3%
COc1ccc(C)cc1NC(=O)C1COc2ccccc2C1 (centres undefined) -16.3%
Fc1ccc(-n2cc(-c3ccccc3)c3c(NCCc4ccccc4)ncnc32)cc1 -25%
CCc1ccc(NC(=O)Cn2c(=O)n(CCCCC(=O)NCCc3ccccc3)c(=O)c3ccccc32)cc1 -3.1%
COc1ccc(-c2noc(CC(=O)Nc3ccc(Br)cc3C)n2)cc1 -1.13%
CCOC(=O)c1c(NC(=O)COc2c(C)cc(Cl)cc2Cl)sc2c1CCCC2 -37.4%
COc1ccc(S(=O)(=O)NCC(c2ccc(N(C)C)cc2)N2CCCC2)cc1 (centres undefined) -5.02%
CCCCCCOC(=O)NC(=N)c1ccc(NCc2nc3cc(C(=O)N(CCC(=O)OCC)c4ccccn4)ccc3n2C)cc1 -20.2%
Cc1cc(C)c(/C=C/c2onc(C)c2S(=O)(=O)N2CCC(C(=O)N(C)Cc3ccccc3)CC2)c(C)c1 -27.5%
Cc1ccc(NC(=O)Nc2nnc(N(C)C3CCCCC3)s2)c(Cl)c1 -17.4%
Cc1ccc(-n2c(=O)c3c4c(sc3n(Cc3ccccc3C)c2=O)CCC4)cc1C -14.6%
CC(=O)NC(Cc1ccccc1)C(=O)O (centres undefined) 0.0872%
O=C(Nc1ccc2c(c1)OCO2)c1cc(-c2ccc(Br)cc2)on1 -4.86% [at 11.5 µM]
Cc1ccccc1C(=O)Nc1nc2nc(-c3ccccc3)cc(=O)n2[nH]1 -16.6%
Clc1cccc(-n2cc(-c3ccccc3)c3c(N4CCCCC4)ncnc32)c1 -12.6%
COc1ccc(O)cc1 7.54%
NCCc1cnc[nH]1
CCCCCCCCCCCCCCCCCCCCCCO -1.38%
Cc1ccc(NC(=O)c2oc3ccc(S(=O)(=O)N4CCCCC4)cc3c2C)cc1Cl -15.5%
CCN(Cc1ccccc1)C(=O)CCc1c(C)nc2c(c(C)nn2-c2ccc(C)c(C)c2)c1C -1.02%
NS(=O)(=O)c1ccc(NC2=CC(=O)c3ccccc3C2=O)cc1 -10.2%
Cn1c(=O)c2c(-c3ccc(Br)cc3)n(CCc3ccccc3)cc2n(C)c1=O -4.11%
COc1ccc(CN2CCCN(CC(=O)Nc3ccc4c(c3)OCCO4)S2(=O)=O)cc1 -2.75%
CCC(=O)Nc1ccc(O)cc1 -5.41%
Cc1ccc(C(=O)N2CCC(C(N)=O)CC2)cc1NC(=O)c1nsc2ccccc12 -0.0325%
COc1ccccc1CNC(=O)CCCn1c(=O)c2ccccc2n(Cc2ccc(C)cc2)c1=O 0.0419%
CN1CCN(C2Cc3ccccc3Sc3ccc(Cl)cc32)CC1 (centres undefined) -22.4%
COc1ccc(N(CC(=O)NCCc2ccc(Cl)cc2)S(=O)(=O)c2c(C)nn(C)c2C)cc1 -23.6%
CCOC(=O)C1CCN(C(=O)c2nn(-c3ccc(OC)cc3)c(=O)c3c2c2ccccc2n3C)CC1 -11%
Cc1ccc(Sc2ccc(N3CCCC(C(=O)Nc4ccc(F)cc4F)C3)nn2)cc1 (centres undefined) -16.2%
Cc1ccc(-c2noc(-c3nnn(CC(=O)Nc4cc(Cl)ccc4C)c3N)n2)cc1 4.14%
Cc1nn(C)c2c1c(C(F)(F)F)cc(=O)n2CC(=O)N1CCC(C)CC1 -3.54%
CC1CCN(S(=O)(=O)c2cc(C(=O)N3CCN(c4ccccc4F)CC3)n(C)c2)CC1 -30.6%
CCC1CN(C(=O)C2CCN(S(=O)(=O)c3c(C)noc3/C=C/c3ccccc3F)CC2)c2cc(C)ccc2O1 (centres undefined) -26.1%
COCCN1CCN(Cc2ccc(C(=O)NC(C)C)cc2)C(=O)C1=O 18.7%
CCCCn1c(SCC(=O)NCc2ccc(C)cc2)nc2c(sc3ccccc32)c1=O -6.21%
COc1ccc(NC(=O)c2oc3ccccc3c2NC(=O)Cc2cccs2)c(OC)c1 -7.15%
COc1ccc(CNC(=O)C(C)n2c(=O)cc(C)c3c(C)nn(-c4ccccc4)c32)cc1 (centres undefined) -21.2%
NS(=O)(=O)c1cc2c(cc1Cl)NC(C(Cl)Cl)NS2(=O)=O (centres undefined)
Cc1nc2c(c(C)nn2-c2ccccc2)c(C)c1CCC(=O)NCc1ccccc1 -12.2%
CCN1CCN(Cc2c(O)ccc3cc(-c4ccc(OC)cc4)c(=O)oc23)CC1 -19.8%
COc1ccc(C2c3cccn3CCN2S(=O)(=O)c2ccc([N+](=O)[O-])cc2)cc1 (centres undefined) 13.3%
CC(=O)c1cccc(NC(=O)c2nc(-c3ccccc3)n(-c3ccccc3C)n2)c1 -27%
COc1ccc(C)cc1Nc1nc(N)c2cc(OC)c(OC)cc2n1 -26.4%
Cc1nnc(N2CCCC(C(=O)NCCc3ccccc3)C2)c2nn(-c3ccccc3)c(C)c12 (centres undefined) -2.38%
Cc1ccc(S(=O)(=O)c2nc(-c3cccc(Cl)c3)oc2NCc2ccccc2)cc1 -29.3%
CN(C)CCNC(=O)c1ccc2c(c1)N(Cc1c(F)cccc1Cl)C(=O)c1ccccc1S2 -29.8%
CCOC(=O)Cn1c(=O)oc2cc(S(=O)(=O)N3CCN(c4cc(C)ccc4C)CC3)ccc21 -8.5%
CCOC(=O)c1c(NC(=O)c2ccc(C)c(C)c2)sc2c1CCCCC2 -7.11%
Cn1cnc(S(=O)(=O)N2CCCC(C(=O)Nc3ccc(OC(F)(F)F)cc3)C2)c1 (centres undefined) -27.3%
CCc1ccc(C(=O)NC2=NC(c3ccccc3F)CC(=O)N2)cc1 (centres undefined) -10.9%
CCC(=O)N1CCc2cc(S(=O)(=O)NC(C(=O)Nc3cc(OC)cc(OC)c3)C(C)C)ccc21 (centres undefined) -4.3%
COCCCNC(=O)c1ccc2nc(CCc3ccccc3)oc2c1 14.3%
CN[C@@H]1[C@H](O)[C@H](NC)[C@H]2O[C@@]3(O)C(=O)C[C@@H](C)O[C@H]3O[C@@H]2[C@H]1O 14.3%
Cc1c(Cl)ccc2sc(N3CCN(C(=O)CS(=O)(=O)c4ccccc4)CC3)nc12 -9.27%
CCOc1ccc(CNC(=O)Cn2c(=O)c3cccn3c3ccccc32)cc1 -3.43%
Cc1ccc(OCC(=O)Nc2ccc(-c3nc4ccccc4o3)cc2)c(C)c1 21.3%
O=C(Nc1ccccc1Br)N1CCC(CN2CCCC2)CC1 -17.6%
CCn1cc2nc(SCc3cccc(C(F)(F)F)c3)n(Cc3ccc(C)cc3)c(=O)c2n1 -8.56%
Cc1cc(F)ccc1NC(=O)c1c(C)oc2c1C1=NCCN1C=N2 0.0919%
CCc1ccccc1NC(=O)CSc1nc2c(c(=O)[nH]1)CN(Cc1ccccc1OC)CC2 -18%
Cc1cc(C)c2c(N)c(C(=O)Nc3ccccc3C(F)(F)F)sc2n1 18.2%
CCC1CN(C(=O)Nc2cc(Cl)ccc2C(=O)OC)c2ccccc2S1 (centres undefined) -11.2%
COc1ccc(OC)c(NC(=O)COCc2cc(-c3ccc(F)cc3)on2)c1 -17.8%
Cc1ccc(C)c(Cn2c(=O)n(CCCC(=O)NCc3ccc4c(c3)OCO4)c(=O)c3sccc32)c1 -29.7%
CN(C(=O)c1nn(C)c2c1CS(=O)(=O)c1ccccc1-2)c1cccc(Cl)c1 -16.9%
CCC(C)c1ccc(OCC(=O)Nc2ccc(-c3nc4ncccc4o3)cc2)cc1 (centres undefined) 37.4%
CC(C)Oc1ccc(C(=O)N2CCCCC2CCN2CCCCC2)cc1 (centres undefined) 0.251%
CCOC(=O)c1sc(N2C(=O)c3oc4ccc(F)cc4c(=O)c3C2c2ccc(O)cc2)nc1C (centres undefined) -12.2%
Cc1ccc(/C=C/c2onc(C)c2S(=O)(=O)N2CCC(C(=O)N(CCC(C)C)Cc3ccco3)CC2)cc1 -9.44%
CCc1cccc(NC(=O)CCNS(=O)(=O)c2ccc3c(c2)CCN3C(C)=O)c1 -24.6%
Cc1ccc(CNC(=O)c2ccc(CS(=O)(=O)c3ccccc3C)o2)cc1 -1.8%
Cc1ccc(N2C(=O)CSC23C(=O)N(CC(=O)Nc2ccccc2F)c2ccccc23)cc1C (centres undefined) -17.8%
CN(C)c1ccc(CNC(=O)c2ccc3nc(CCc4ccccc4)oc3c2)cc1 4.57%
CCOC(=O)CSc1nc2cc3c(cc2c(=O)n1CCCCCC(=O)NCc1ccc(OC)cc1)OCO3 -15.7%
COc1ccccc1NC(=O)Cn1c(=O)n(-c2ccc(C)cc2)c(=O)c2c1cnn2C -6.64%
CCOc1ccc(NC(=O)c2oc3ccccc3c2NC(=O)c2cc3ccccc3o2)cc1 20.7%
COc1ccc(-n2nc(C(=O)Nc3cccc(Cl)c3)c3c4ccccc4n(C)c3c2=O)cc1Cl -2.4%
CC(C)(C)c1ccc(-c2nnc(-c3ccccc3NC(=O)c3ccc(F)cc3F)o2)cc1 -13.2%
O=C(CSc1oc(-c2ccco2)nc1S(=O)(=O)c1ccc(Cl)cc1)Nc1ccc(F)cc1 -17.8%
COc1ccc(-c2nc3ccccc3n3c(-c4ccccc4)c4c(=O)n(C)c(=O)n(C)c4c23)cc1 -6.95% [at 11.5 µM]
Cc1onc(-c2ccccc2Cl)c1C(=O)N[C@@H]1C(=O)N2[C@@H]1SC(C)(C)[C@@H]2C(=O)O
COc1ccc2c(c1)c1c(c(=O)n(Cc3ccccc3)c(=O)n1Cc1ccc(C)cc1)n2C -15.4%
Cc1ccc(-n2ncc(C(=O)NCCCN3CCc4ccccc4C3)c2C2CCN(C(=O)OC(C)(C)C)CC2)cc1C -21.9%
CC(CNC(=O)CN1C(=O)COc2ccc(S(=O)(=O)N3CCCCC3)cc21)c1ccccc1 (centres undefined) 0.241%
CC1CN(C(=O)Nc2ccc(C(=O)NCCc3ccccc3Cl)cc2)c2ccccc2S1 (centres undefined) -14.2%
COc1ccccc1-c1cccc(-c2c(O)c3cc(C#N)c(Cl)cc3[nH]c2=O)c1 -15.2% [at 116 µM]
COc1ccc(-c2cc(C(F)(F)F)n3nc(C(=O)Nc4sc5c(c4C#N)CCC(C)C5)cc3n2)cc1OC (centres undefined) -8.52% [at 11.5 µM]
CCOC(=O)C1CCN(C(=O)c2cc3ccc4ccc(C)[nH]c4c3n2)CC1 40.9%
CCC(C)NC(=O)c1[nH]c2cc(OC)ccc2c1Sc1ccc(C)cc1 (centres undefined) -30.5%
CCOC(=O)c1cccc(NC(=O)c2cnn(-c3ccccc3)c2-n2cccc2)c1 -24.6%
O=C(CSCc1cc(=O)c2ccccc2[nH]1)Nc1cccc(C(F)(F)F)c1 -17.7%
